# Source: the supplement of paper PMC8728848
# The list shows a part of the results.
# Experiments:
# Test in all cases: glycan array binding signal (z-score within array); higher = stronger binding
# Details in all cases: glycan notation: IUPAC condensed, linker removed
# [1] = target: Fuc(a1-2)[GalNAc(a1-3)]Gal(b1-4)Glc
# In short: (§1)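 Glycan array data came from 3228 arrays in the Consortium for Functional Glycomics database, and only arrays with an available protein sequence were kept. Glycan names were put into IUPAC-condensed notation, and columns mapping to the same glycan were averaged. The binding signal is a within-array Z-score, averaged across arrays of one protein sequence run at different concentrations or buffers and across linkers. A negative Z-score can be read as non-binding.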
# [2] = target: Fuc(a1-2)[GalNAc(a1-3)]Gal(b1-4)GlcNAc
# In short: as §1
# [3] = target: Fuc(a1-2)[GalNAc(a1-3)]Gal(b1-4)GlcNAc(b1-2)Man
# In short: as §1
# [4] = target: Fuc(a1-2)[GalNAc(a1-3)]Gal(b1-4)GlcNAc(b1-2)Man(a1-3)[Fuc(a1-2)[GalNAc(a1-3)]Gal(b1-4)GlcNAc(b1-2)Man(a1-6)]Man(b1-4)GlcNAc(b1-4)GlcNAc
# In short: as §1
# [5] = target: Fuc(a1-2)[GalNAc(a1-3)]Gal(b1-4)GlcNAc(b1-2)Man(a1-3)[Fuc(a1-2)[GalNAc(a1-3)]Gal(b1-4)GlcNAc(b1-2)Man(a1-6)]Man(b1-4)GlcNAc(b1-4)[Fuc(a1-6)]GlcNAc
# In short: as §1
# [6] = target: Fuc(a1-2)[GalNAc(a1-3)]Gal(b1-4)GlcNAc(b1-3)Gal(b1-4)GlcNAc
# In short: as §1
# [7] = target: Fuc(a1-2)[GalNAc(a1-3)]Gal(b1-4)GlcNAc(b1-3)Gal(b1-4)GlcNAc(b1-3)Gal(b1-4)GlcNAc
# In short: as §1
# [8] = target: Fuc(a1-2)[GalNAc(a1-3)]Gal(b1-4)GlcNAc(b1-3)GalNAc
# In short: as §1
# [9] = target: Fuc(a1-2)[GalNAc(a1-3)]Gal(b1-4)GlcNAc(b1-3)[Fuc(a1-2)[GalNAc(a1-3)]Gal(b1-4)GlcNAc(b1-6)]GalNAc
# In short: as §1
# [10] = target: Fuc(a1-2)[GalNAc(a1-3)]Gal(b1-4)GlcNAc(b1-6)GalNAc
# In short: as §1
# [11] = target: Fuc(a1-2)[GalNAc(a1-3)]Gal(b1-4)[Fuc(a1-3)]GlcNAc
# In short: as §1
# [12] = target: Fuc(a1-2)[GalNAc(a1-3)]Gal(b1-4)[Fuc(a1-3)]GlcNAc(b1-3)GalNAc
# In short: as §1
# [13] = target: Fuc(a1-2)[GalNAc(a1-4)]Gal(b1-4)GlcNAc
# In short: as §1
# [14] = target: Fuc(a1-2)[GalNAc(b1-3)]Gal
# In short: as §1
# Fuc(a1-3)GlcNAc = target: Fuc(a1-3)GlcNAc
# In short: as §1
# [15] = target: Fuc(a1-3)[Gal(b1-4)]Glc6S
# In short: as §1
# [16] = target: Fuc(a1-3)[Gal(b1-4)]GlcNAc
# In short: as §1
# [17] = target: Fuc(a1-3)[Gal(b1-4)]GlcNAc(b1-2)Man
# In short: as §1
# [18] = target: Fuc(a1-3)[Gal(b1-4)]GlcNAc(b1-2)Man(a1-3)[Fuc(a1-3)[Gal(b1-4)]GlcNAc(b1-2)Man(a1-6)]Man(b1-4)GlcNAc(b1-4)GlcNAc
# In short: as §1
# [19] = target: Fuc(a1-3)[Gal(b1-4)]GlcNAc(b1-2)Man(a1-3)[Fuc(a1-3)[Gal(b1-4)]GlcNAc(b1-2)Man(a1-6)]Man(b1-4)GlcNAc(b1-4)[Fuc(a1-6)]GlcNAc
# In short: as §1
# [20] = target: Fuc(a1-3)[Gal(b1-4)]GlcNAc(b1-3)Gal(b1-3)[Fuc(a1-4)]GlcNAc
# In short: as §1
# [21] = target: Fuc(a1-3)[Gal(b1-4)]GlcNAc(b1-3)GalNAc
# In short: as §1
# [22] = target: Fuc(a1-3)[Gal(b1-4)]GlcNAc(b1-4)Gal(b1-4)[Fuc(a1-3)]GlcNAc
# In short: as §1
# [23] = target: Fuc(a1-3)[Gal(b1-4)]GlcNAc(b1-4)Gal(b1-4)[Fuc(a1-3)]GlcNAc(b1-4)Gal(b1-4)[Fuc(a1-3)]GlcNAc
# In short: as §1
# [24] = target: Fuc(a1-3)[Gal(b1-4)]GlcNAc(b1-6)GalNAc
# In short: as §1
# [25] = target: Fuc(a1-3)[Gal(b1-4)]GlcNAc(b1-6)[Gal(b1-3)GlcNAc(b1-3)]Gal(b1-4)Glc
# In short: as §1
# [26] = target: Fuc(a1-3)[Gal(b1-4)]GlcNAc6S
# In short: as §1
# [27] = target: Fuc(a1-3)[Gal3S(b1-4)]Glc
# In short: as §1
# [28] = target: Fuc(a1-3)[Gal3S(b1-4)]GlcNAc
# In short: as §1
# [29] = target: Fuc(a1-3)[Gal3S(b1-4)]GlcNAc6S
# In short: as §1
# [30] = target: Fuc(a1-3)[GalNAc(b1-4)]GlcNAc
# In short: as §1
# [31] = target: Fuc(a1-3)[GalNAc(b1-4)]GlcNAc6S
# In short: as §1
# Fuc(a1-4)GlcNAc = target: Fuc(a1-4)GlcNAc
# In short: as §1
# Fuc(b1-3)GlcNAc = target: Fuc(b1-3)GlcNAc
# In short: as §1
# Gal(a1-2)Gal = target: Gal(a1-2)Gal
# In short: as §1
# Gal(a1-3)Gal = target: Gal(a1-3)Gal
# In short: as §1
# Gal(a1-3)Gal(b1-3)GlcNAc = target: Gal(a1-3)Gal(b1-3)GlcNAc
# In short: as §1
# [32] = target: Gal(a1-3)Gal(b1-3)GlcNAc(b1-2)Man
# In short: as §1
# [33] = target: Gal(a1-3)Gal(b1-3)GlcNAc(b1-2)Man(a1-3)[Gal(a1-3)Gal(b1-3)GlcNAc(b1-2)Man(a1-6)]Man(b1-4)GlcNAc(b1-4)GlcNAc
# In short: as §1
# [34] = target: Gal(a1-3)Gal(b1-3)GlcNAc(b1-3)GalNAc
# In short: as §1
# [35] = target: Gal(a1-3)Gal(b1-3)GlcNAc(b1-6)GalNAc
# In short: as §1
# [36] = target: Gal(a1-3)Gal(b1-3)[Fuc(a1-4)]GlcNAc(b1-2)Man(a1-3)[Gal(a1-3)Gal(b1-3)[Fuc(a1-4)]GlcNAc(b1-2)Man(a1-6)]Man(b1-4)GlcNAc(b1-4)GlcNAc
# In short: as §1
# Gal(a1-3)Gal(b1-4)Glc = target: Gal(a1-3)Gal(b1-4)Glc
# In short: as §1
# Gal(a1-3)Gal(b1-4)GlcNAc = target: Gal(a1-3)Gal(b1-4)GlcNAc
# In short: as §1
# [37] = target: Gal(a1-3)Gal(b1-4)GlcNAc(b1-2)Man
# In short: as §1
binder,measurement,setting,value
Fm1D (Escherichia coli) (protein) FSCNVDGGSSIGAGTTSVYVNLDPVIQPGQNLVVDLSQHISCWNDYGGWYDTDHINLVQGSAFAGSLQSYKGSLYWNNVTYPFPLTTNTNVLDIGDKTPMPLPLKLYITPVGAAGGVVIKAGEVIARIHMYKIATLGSGNPRNFTWNIISNNSVVMPTHHHHHH,glycan array binding signal (z-score),[1],-0.142
same,glycan array binding signal (z-score),[2],-0.147
same,glycan array binding signal (z-score),[3],-0.143
same,glycan array binding signal (z-score),[4],-0.142
same,glycan array binding signal (z-score),[5],-0.149
same,glycan array binding signal (z-score),[6],-0.143
same,glycan array binding signal (z-score),[7],-0.142
same,glycan array binding signal (z-score),[8],-0.146
same,glycan array binding signal (z-score),[9],-0.142
same,glycan array binding signal (z-score),[10],-0.145
same,glycan array binding signal (z-score),[11],-0.138
same,glycan array binding signal (z-score),[12],-0.13
same,glycan array binding signal (z-score),[13],-0.136
same,glycan array binding signal (z-score),[14],-0.145
same,glycan array binding signal (z-score),Fuc(a1-3)GlcNAc,-0.14
same,glycan array binding signal (z-score),[15],-0.144
same,glycan array binding signal (z-score),[16],-0.142
same,glycan array binding signal (z-score),[17],-0.141
same,glycan array binding signal (z-score),[18],-0.14
same,glycan array binding signal (z-score),[19],-0.139
same,glycan array binding signal (z-score),[20],-0.143
same,glycan array binding signal (z-score),[21],-0.139
same,glycan array binding signal (z-score),[22],-0.138
same,glycan array binding signal (z-score),[23],-0.113
same,glycan array binding signal (z-score),[24],-0.139
same,glycan array binding signal (z-score),[25],-0.139
same,glycan array binding signal (z-score),[26],-0.148
same,glycan array binding signal (z-score),[27],-0.141
same,glycan array binding signal (z-score),[28],-0.141
same,glycan array binding signal (z-score),[29],-0.143
same,glycan array binding signal (z-score),[30],-0.145
same,glycan array binding signal (z-score),[31],-0.149
same,glycan array binding signal (z-score),Fuc(a1-4)GlcNAc,-0.148
same,glycan array binding signal (z-score),Fuc(b1-3)GlcNAc,-0.145
same,glycan array binding signal (z-score),Gal(a1-2)Gal,-0.139
same,glycan array binding signal (z-score),Gal(a1-3)Gal,-0.142
same,glycan array binding signal (z-score),Gal(a1-3)Gal(b1-3)GlcNAc,-0.138
same,glycan array binding signal (z-score),[32],-0.144
same,glycan array binding signal (z-score),[33],-0.131
same,glycan array binding signal (z-score),[34],-0.139
same,glycan array binding signal (z-score),[35],-0.122
same,glycan array binding signal (z-score),[36],-0.128
same,glycan array binding signal (z-score),Gal(a1-3)Gal(b1-4)Glc,-0.145
same,glycan array binding signal (z-score),Gal(a1-3)Gal(b1-4)GlcNAc,-0.137
same,glycan array binding signal (z-score),[37],-0.143
